Test results from PubChem BioAssay (NCATS).
Values joined by “and” are separate entries in the source; they are usually repeats but may differ in a detail not shown here. Identical values can stand only once. The shares of active, inactive and inconclusive entries below differ from those in the screen. A potency beside an inconclusive call is a rough fit, not a confirmed value. Active and inactive are the calls of the source. Calls follow the shape of the dose curve; as a rule, active = well fitted cell-killing curve with a large enough effect; inconclusive = small, poorly fitted or top-dose-only effect; inactive = no such curve, though single readings can be large or run the other way.

Experiment: qHTS of pediatric cancer cell lines to identify multiple opportunities for drug repurposing: Primary screen for NB-EBc1 cells (AID 1347095);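 as to activity change, negative = cytotoxic: plate controls were DMSO neutral control for no effect and bortezomib for full effect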
Details: NB-EBc1 neuroblastoma viability, CellTiter-Glo luminescence, 48 h; series mostly up to 46 µM; activity change, negative = cytotoxic: at the top concentration
How it was run: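 500-1,000 cells/well; 5 h pre-incubation 37 °C/5% CO2; compound pinned; 48 h; CellTiter-Glo, 15 min RT; luminescence. MIPE 11-pt from 0.78 nM, NPC 8-pt from 0.59 nM final. Bortezomib 2.3 µM final as positive control.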
Potency is read from the fitted curve at half-maximal effect; tags tell the direction and shape of the fitted curve.

| Compound | Potency | activity change, negative = cytotoxic |
| --- | --- | --- |
| N#CC(C#N)=Cc1ccc(O)c(O)c1 | inconclusive: 21.1 µM [cytotoxic, single point] | – |
| c1ccc2c(c1)OCC(C1=NCCN1)O2 (centres undefined) | inconclusive: 33.5 µM [cytotoxic, single point] | – |
| Clc1ccc(C(OCCN2CCCCC2)c2ccccc2)cc1 (centres undefined) | inconclusive: 16.8 µM [cytotoxic, partial curve, poor fit] | – |
| COc1cc(C[C@@H](C)N)c(OC)cc1C | inconclusive: 82 µM [cytotoxic, partial curve, poor fit] | – |
| COc1ccc(Cc2nccc3cc(OC)c(OC)cc23)cc1OC | inconclusive: 10.6 µM [cytotoxic, partial curve, poor fit] and inconclusive: 16.6 µM [cytotoxic, partial curve] | – |
| C=C[C@@H]1CN2CCC1C[C@H]2[C@H](O)c1ccnc2ccccc12 (some centres undefined) | – | inactive: -8.24% |
| Oc1ccc2[nH]cc(CCCCN3CC=C(c4ccccc4)CC3)c2c1 | inconclusive: 18.8 µM [cytotoxic, single point] | – |
| O=C1C=CC[C@@H]2[C@H]3CCCN4CCC[C@@H](CN12)[C@@H]34 | inconclusive: 16.6 µM [cytotoxic, partial curve, poor fit] | – |
| CCCCCCCCCC(CC)c1ccc(S(=O)(=O)O)cc1 (centres undefined) | inconclusive: 30.6 µM [cytotoxic, partial curve] | – |
